Measurements from patent publication US20130203661A1 (AEGERION PHARMACEUTICALS, published 2013).

Assays:
[1] = biological target: T1, chimeric Leptin (Hu)-EPO (Mu) receptor presented by the 32D OBECA cell line (human; murine, UniProt P48357 22-839; P14753 250-507); test: cell-based or functional assay
T1 sequence (looked up): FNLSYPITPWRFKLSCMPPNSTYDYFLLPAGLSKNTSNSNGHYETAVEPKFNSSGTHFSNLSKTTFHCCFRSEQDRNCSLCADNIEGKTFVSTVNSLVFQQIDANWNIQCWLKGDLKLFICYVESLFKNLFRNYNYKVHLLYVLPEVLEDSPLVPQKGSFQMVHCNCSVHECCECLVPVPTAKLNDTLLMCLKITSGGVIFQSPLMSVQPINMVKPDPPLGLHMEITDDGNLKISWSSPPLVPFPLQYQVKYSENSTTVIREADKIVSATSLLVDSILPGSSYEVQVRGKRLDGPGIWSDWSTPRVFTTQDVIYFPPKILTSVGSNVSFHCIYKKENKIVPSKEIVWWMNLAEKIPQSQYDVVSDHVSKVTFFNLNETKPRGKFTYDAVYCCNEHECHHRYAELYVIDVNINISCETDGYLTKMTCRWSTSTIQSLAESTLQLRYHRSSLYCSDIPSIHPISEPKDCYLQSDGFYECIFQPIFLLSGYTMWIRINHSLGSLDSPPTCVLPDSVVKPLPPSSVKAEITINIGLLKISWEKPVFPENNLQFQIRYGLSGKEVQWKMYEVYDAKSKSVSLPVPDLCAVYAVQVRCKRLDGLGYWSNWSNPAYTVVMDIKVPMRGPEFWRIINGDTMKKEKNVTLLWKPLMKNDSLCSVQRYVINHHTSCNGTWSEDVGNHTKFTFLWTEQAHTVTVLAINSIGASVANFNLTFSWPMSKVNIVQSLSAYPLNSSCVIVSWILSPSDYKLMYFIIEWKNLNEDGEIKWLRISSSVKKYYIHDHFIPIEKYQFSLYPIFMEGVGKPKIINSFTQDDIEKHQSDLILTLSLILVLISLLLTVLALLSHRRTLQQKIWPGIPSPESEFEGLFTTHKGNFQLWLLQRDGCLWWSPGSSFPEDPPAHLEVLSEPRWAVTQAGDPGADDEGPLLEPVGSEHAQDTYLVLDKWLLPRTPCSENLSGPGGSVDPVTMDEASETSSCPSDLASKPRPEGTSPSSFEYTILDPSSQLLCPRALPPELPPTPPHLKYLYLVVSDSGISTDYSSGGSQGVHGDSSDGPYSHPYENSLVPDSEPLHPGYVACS

[2] = biological target: T1, chimeric Leptin (Hu)-EPO (Mu) receptor …; test: Obeca cell binding: displacement of 125I-murine leptin from 32D OBECA cell membranes

EC50 (Obeca Stat 5 functional assay) [1]: 0.02 nM
IC50 [2]: 0.2 to 0.8 nM
B1: Mature Human Leptin form 1 with N-terminal methionine (also known as Metreleptin, or A100) (ligand)
chain: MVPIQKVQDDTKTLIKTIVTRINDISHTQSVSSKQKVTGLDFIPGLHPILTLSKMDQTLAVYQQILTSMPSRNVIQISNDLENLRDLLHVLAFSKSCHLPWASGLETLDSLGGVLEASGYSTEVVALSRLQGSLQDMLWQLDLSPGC
notes: Mature human leptin with an added N-terminal methionine; also called Compound 37; Cmpd 37
